# Results reported in article PMC4336329 (PLoS ONE, 2015).
# Screen size: about 310,000 compounds; about 2,200 (0.71%) showed an effect of 50% or more. The effect is printed as a negative number. Some of the results follow.
# Molecular target: human ether-à-go-go-related gene (hERG) potassium channel (human, UniProt Q12809)
# Experiment: primary screen, population patch clamp on CHO cells stably expressing hERG
# Sequence of human ether-à-go-go-related gene (hERG) potassium channel (Q12809 whole entry, looked up): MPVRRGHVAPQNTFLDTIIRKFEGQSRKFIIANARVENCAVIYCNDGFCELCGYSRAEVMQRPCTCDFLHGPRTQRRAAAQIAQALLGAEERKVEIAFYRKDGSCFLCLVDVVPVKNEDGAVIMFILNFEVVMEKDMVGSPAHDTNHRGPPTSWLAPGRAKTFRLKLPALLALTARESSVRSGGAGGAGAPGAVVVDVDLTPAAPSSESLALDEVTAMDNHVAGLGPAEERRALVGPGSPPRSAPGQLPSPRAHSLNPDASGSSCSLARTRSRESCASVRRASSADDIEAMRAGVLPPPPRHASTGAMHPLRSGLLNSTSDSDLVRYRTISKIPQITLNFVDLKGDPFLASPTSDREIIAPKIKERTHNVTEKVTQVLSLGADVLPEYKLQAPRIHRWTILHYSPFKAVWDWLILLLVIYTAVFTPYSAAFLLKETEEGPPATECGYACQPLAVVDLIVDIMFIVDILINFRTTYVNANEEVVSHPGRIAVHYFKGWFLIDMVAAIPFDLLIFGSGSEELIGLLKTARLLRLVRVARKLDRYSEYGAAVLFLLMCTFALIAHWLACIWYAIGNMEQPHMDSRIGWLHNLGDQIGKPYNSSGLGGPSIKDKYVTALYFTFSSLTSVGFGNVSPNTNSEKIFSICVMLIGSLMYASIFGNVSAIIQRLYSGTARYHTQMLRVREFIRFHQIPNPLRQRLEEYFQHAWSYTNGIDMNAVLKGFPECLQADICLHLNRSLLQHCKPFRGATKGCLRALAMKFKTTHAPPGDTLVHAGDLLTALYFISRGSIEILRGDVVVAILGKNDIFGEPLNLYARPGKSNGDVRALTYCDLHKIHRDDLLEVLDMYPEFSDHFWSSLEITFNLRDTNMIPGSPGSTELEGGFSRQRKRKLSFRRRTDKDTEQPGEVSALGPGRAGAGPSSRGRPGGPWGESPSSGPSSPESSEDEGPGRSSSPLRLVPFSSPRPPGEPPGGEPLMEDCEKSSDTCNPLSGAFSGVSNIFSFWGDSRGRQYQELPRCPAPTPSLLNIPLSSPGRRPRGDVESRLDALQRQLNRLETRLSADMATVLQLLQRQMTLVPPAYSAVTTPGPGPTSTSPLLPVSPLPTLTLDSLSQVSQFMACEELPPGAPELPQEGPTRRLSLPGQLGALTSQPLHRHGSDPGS
row,Compound,"hERG current change (%, negative = inhibition) at 1uM [%]"
1,Cc1ccc(C2/C(=C(\O)c3cnn(-c4ccccc4)c3C)C(=O)C(=O)N2CCN(C)C)o1 (centres unmarked),7.54
2,COC(=O)c1ccccc1NC(=S)N(Cc1ccc2c(c1)OCO2)Cc1cc2ccc(OC)cc2[nH]c1=O,-1.8
3,CC(=O)c1cccc(NC(=O)CCCCCn2nnc3ccccc3c2=O)c1,6.86
4,CCN(CC)CCCNC(=O)c1cc2c(=O)n(CC)c3ccccc3c2s1,4.1
5,CCOC(=O)c1ccc(N(C(=O)c2cnccn2)C(C(=O)NC2CCCCC2)c2cn(C)nc2C)cc1 (centres unmarked),-17.2
6,Clc1cnc(N/N=C/c2ccncc2)c(Cl)c1,10.3
7,COc1ccc(CC(NC(C)=O)C(=O)NC2CCN(c3nc(C)cc(C)c3C#N)CC2)c(OC)c1 (centres unmarked),12
8,CCOC(=O)c1cccnc1NC(=O)c1ccncc1,14.5
9,O=C(CNC(=S)N(Cc1ccccc1)Cc1cccnc1)NCCc1ccccc1,0.0675
10,CC(=O)N(/N=C/c1ccc([N+](=O)[O-])o1)c1nc2ccccc2c(=O)n1-c1ccccc1,6.3
11,CC(NC(=O)c1ccc(C(C)(C)C)cc1)C(=O)O (centres unmarked),9.99
12,CC(=O)NNC(=O)c1[nH]c2ccc(Cl)cc2c1-c1ccccc1,14.7
13,O=C(Cc1c(O)c2ccccc2[nH]c1=O)NC1CCCCCCC1,-1.98
14,Cc1cc(=O)oc2c(C)c(OC(C)C(=O)N3CC[C@@]4(O)CCCC[C@H]4C3)ccc12 (some centres unmarked),2.85
15,CCCC(=O)Nc1ccc(NC(=O)c2ccccc2)nc1,13.6
16,Cc1cccc(OCC(=O)N2CCC(N3CCCCCC3)CC2)c1,3.48
17,O=C(Cn1c2c(c(=O)n3ncnc13)CCC2)N/N=C/c1cccs1,20
18,Cc1cc(NCc2ccccc2)nc(N2CCOCC2)n1,3.81
19,Cc1nn(-c2ccccc2)c(C)c1NC(=O)COC(=O)CC(C)c1ccccc1 (centres unmarked),4.03

row,Compound,"hERG current change (%, negative = inhibition) at 1uM [%]"
1,Cc1ccccc1S(=O)(=O)N1[C@@H](c2cccc(Cl)c2)C(C(=O)O)=CC[C@H]1c1ccc(Cl)cc1,3.96
2,Cc1ccc(OCC(=O)NCCCNC(=O)c2cccnc2)cc1C,7.2
3,CC(=O)N=C(N)Sc1nc2ccccc2[nH]1,5.28
4,COCCCNC(=O)CSc1nc2ccccc2c(=O)n1CCc1ccc(S(N)(=O)=O)cc1,8.29
5,Cc1onc(-c2ccccc2)c1C(=O)NNC(=S)NC(=O)c1ccc2c(c1)OCO2,9.64
6,FC(F)(F)c1nc(SCc2ccccc2)n[nH]1,13.9
7,Cc1ccccc1NC(=O)c1ccc2c(c1)OCCO2,11
8,CCOc1ccc2cc(C#N)c(SCC(=O)N3CCC(C)CC3)nc2c1,5.56
9,COc1ccc(CC(=O)NNC(=O)COc2ccc(C)cc2)cc1S(=O)(=O)N1CCOCC1,16.9
10,CCc1nnc(NC(=O)c2ccc3c(=O)n4c(nc3c2)CCCCC4)s1,14.4
11,CC(=O)c1ccc(OC(=O)C2CC(=O)N(c3cccc(C)c3)C2)cc1 (centres unmarked),-1.15
12,Cc1ccc(C(=O)Cn2nnc3ccccc32)cc1C,1.4
13,O=C(CSc1nc2ccccc2c(=O)[nH]1)NCc1ccc(Cl)cc1,1.66
14,CCCCNS(=O)(=O)c1cccc(S(=O)(=O)N2CCCC2)c1,0.0039
15,Cn1c(Cc2cccs2)nnc1SCC(=O)Nc1ccccc1F,16.1
16,COc1ccccc1C(=O)N(CCC1CCCN1C)c1nc2ccccc2s1 (centres unmarked),3.79
17,COc1ccc(CCNC(=O)c2ccc(=O)[nH]c2)cc1OC,12
18,COc1ccc(C)cc1NC(=O)c1ccc(CN2CCc3ccccc3C2)cc1,14.7
19,CCCC(=O)NC(Nc1ccccc1OC)C(Cl)(Cl)Cl (centres unmarked),8.13

row,Compound,"hERG current change (%, negative = inhibition) at 1uM [%]"
1,COc1ccc(S(=O)(=O)N(CC(=O)NCc2ccncc2)c2ccc(C)cc2)cc1Br,-28.1
2,Cc1cc(N(C(=O)c2ccco2)C(C(=O)NC2CCCCC2)c2ccccc2)ccc1-n1cnnn1 (centres unmarked),13.2
3,CC1CCN(C(=O)COC(=O)c2ccc(Br)o2)CC1,14.5
4,CN(C)c1ccc(CN(C(=O)C2COc3ccccc3O2)C2CCS(=O)(=O)C2)cc1 (centres unmarked),-0.909
5,C/C(=N\NC(=O)c1ccccc1)c1ccccc1F,-0.463
6,COC(=O)CNC(=O)c1cn(CCC#N)nc1-c1ccc(F)cc1,0.966
7,Cc1ccc(-c2noc(CN3C(C)CCCC3C)n2)cc1 (centres unmarked),8.87
8,OCCNC(=S)Nc1ccc(Oc2ccccc2)cc1,13.8
9,Nc1nc(F)nc2c1ncn2[C@@H]1O[C@H](CO)[C@@H](O)[C@@H]1O,16.7
10,CCCN(CCC)S(=O)(=O)c1ccc(N2CCCC2=O)c([N+](=O)[O-])c1,-6.51
11,CN1C(=O)C(=Cc2cn(CC(=O)N3CCCC3)c3ccccc23)C(=O)N(C)C1=O,7.22
12,CC(C)(O)c1[nH]c2ccc(C#N)cc2c1C(C)(C)O,9.14
13,CCN1C(=O)/C(=C2\C=Cc3cc(C)ccc3N2CC)OC1=S,14
14,COc1ccc(NS(=O)(=O)c2cccc(C(=O)NCCCn3ccnc3)c2)cc1,15.7
15,CC1(C)C(=O)Nc2ccccc2N1C(=O)COC(=O)c1cc([N+](=O)[O-])ccc1N,12
16,O/N=C(\c1ccccc1)c1nccc2ccccc12,8.46
17,CC1CCN(C(=O)c2nc[nH]c2C(=O)OCCNC(=O)OC(C)(C)C)CC1,14.4
18,CC1CC(=O)C2=C(C1)OC(N)=C(C#N)C2c1coc2ccccc2c1=O (centres unmarked),9.7
